Laboratory results taken from PubChem BioAssay AID1345082 (National Center for Advancing Translational Sciences (NCATS), 2018).
Screen size: about 94,000 compounds; about 4,000 (4.3%) were called active. The inconclusive results got no clear call from the source; some entries with a clear call stand among them for comparison. The call rests on the fitted dose curve; in most records, active means well fitted inhibition curve with a large enough effect; inconclusive means small, poorly fitted or top-dose-only effect; inactive means no such curve, though single readings can be large or run the other way. A potency beside an inconclusive call is a rough fit, not a confirmed value.

experiment: Cytotoxic Profiling in NIH 3T3 Cell Line of Diverse Libraries Using Quantitative High-Throughput Screening; settings: NIH 3T3 viability, CellTiter-Glo ATP luminescence, 48-72 h; activity change, negative = cytotoxicity: at 96.7 µM (top of the series) unless noted; series mostly up to 96.7 µM; further: nearly all actives have a fitted effect of over 55% in size
Procedure, shortened: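 Luminescent ATP readout (CellTiter-Glo, 10 min RT) after 48 or 72 hr compound exposure of NIH 3T3 cells seeded at 400 cells/well in 1536-well format; quantitative HTS.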
On the % scale 0 is the no-effect control and ±100 the full control effect; potency means the concentration at half of the fitted maximal effect; tags describe the fitted curve by direction and shape.

| Compound | Potency | activity change, negative = cytotoxicity |
| --- | --- | --- |
| COc1ccccc1-c1cnc2n[nH]c(-c3ccccc3)c2n1 | active: 79.4 µM | – |
| O=C(c1cc2ccccc2[nH]1)N1CCC2(C1)NC(=O)N(Cc1ccc(Cl)cc1)C2=O (stereo not given) | inconclusive: 50.1 µM [inhibitor, partial curve, poor fit] | – |
| O=C(NCc1cccs1)C1CCc2nnc(-c3cccc(C(F)(F)F)c3)n21 (stereo not given) | – | inactive: -28.2% |
| CC(C)[C@@H]1CN(C(=O)c2ccc(F)cc2F)C[C@H]1NS(=O)(=O)N(C)C | inconclusive: 35.5 µM [inhibitor, partial curve] | – |
| O=C(Cc1ccccn1)N1CCC(c2nn(-c3ccc(Cl)cc3)c(=O)[nH]2)CC1 | inconclusive: 79.4 µM [inhibitor, partial curve, poor fit] | – |
| O=C(c1cccnc1OC1CCN(S(=O)(=O)Cc2ccccc2)C1)N1CCCCC1 (stereo not given) | inconclusive: 70.8 µM [inhibitor, single point] | – |
| COc1ccc(C(=O)N2CCC3(CC2)Cc2ccccc2NC3=O)cc1 | active: 35.5 µM | – |
| COc1ccccc1CNC(=O)c1noc(-c2ccc(C)cc2)n1 | inconclusive: 17.8 µM [inhibitor, full curve, poor fit] | – |
| O=C(c1noc(-c2ccc(F)cc2)n1)N1CCN(c2ccc(Cl)cc2)CC1 | inconclusive: 50.1 µM [inhibitor, partial curve, poor fit] | – |
| Cc1ccc([S+](=O)([O-])N2CCN(C(=O)c3nc4cccnc4n(CC(C)C)c3=O)CC2)cc1 | inconclusive: 50.1 µM [inhibitor, partial curve, poor fit] | – |
| CN1CCN(Cc2ccc(Nc3cnc4ccc(N5CCOCC5)nn34)cc2)CC1 | – | inactive: -31.1% [at 138 µM] |
| CNC(=O)C1(C)CN(Cc2ccccc2)Cc2ccc(Nc3ccccc3)nc21 (stereo not given) | inconclusive: 56.2 µM [inhibitor, partial curve, poor fit] | – |
| C[C@H]1CN(C(=O)c2nn(C)c3ccccc23)C[C@@H]1c1nc(-c2ccncc2)no1 | inconclusive: 50.1 µM [inhibitor, partial curve, poor fit] | – |
| COC[C@H]1NC(=O)CC[C@H]1C(=O)N1CCN(c2cccc(C)c2C)CC1 | – | inactive: -27.7% |
| COc1cccc(NC(=O)c2cnc(-c3ccc(C)cc3)nc2-c2ccncc2)c1 | inconclusive: 50.1 µM [inhibitor, partial curve, poor fit] | – |
| COc1ccccc1CN1CCN(C(=O)c2ccc(CCC(C)(C)O)cc2)CC1 | – | inactive: -5.7% |
| O=C(c1ccc2c(c1)OCO2)N1CCC2(CC1)NC(=O)N(c1cccc(F)c1)N2 | inconclusive: 39.8 µM [inhibitor, partial curve] | – |
| CCCN(C)c1nccnc1OC1CCN(C(=O)c2ccccc2OC)C1 (stereo not given) | inconclusive: 56.2 µM [inhibitor, partial curve, poor fit] | – |
| COc1ccc(N2CC(c3noc(-c4ccc(OC)cc4C)n3)CC2=O)cc1 (stereo not given) | inconclusive: 35.5 µM [inhibitor, partial curve, poor fit] | – |
| CN(C)C(=O)c1ccc2oc(-c3ccnc(Cl)c3)nc2c1 | active: 28.2 µM | – |

| Compound | Potency | activity change, negative = cytotoxicity |
| --- | --- | --- |
| CC(=O)NC1(C)CCN(Cc2ccc(-c3cccc(Cl)c3)cc2)C1 (stereo not given) | inconclusive: 50.1 µM [inhibitor, partial curve, poor fit] | – |
| O=C1NCC2(CCCN(C(=O)c3cnc4c(O)cccn4c3=O)C2)O1 (stereo not given) | – | inactive: 3.85% |
| COc1ccccc1Cn1c(=O)c(C(=O)N2CCN(C(=O)Nc3ccc(Cl)cc3)CC2)nc2cccnc21 | inconclusive: 11.2 µM [inhibitor, full curve] | – |
| O=C(C1CC1)N1CCC2(C1)C(=O)N(CCc1ccccc1)c1ccccc12 (stereo not given) | inconclusive: 44.7 µM [inhibitor, partial curve, poor fit] | – |
| O=C(CC1CCCC1)N1CCC(Cc2nncn2Cc2ccccc2)C1 (stereo not given) | inconclusive: 70.8 µM [inhibitor, single point] | – |
| CN(C)C(=O)c1ccc(-c2ccc3ncn(-c4ccc(F)cc4F)c(=O)c3n2)cc1 | inconclusive: 56.2 µM [inhibitor, partial curve, poor fit] | – |
| O=C([C@@H]1C[C@H](Oc2ccccc2)CN1C(=O)CCC1CCCC1)N1CCCC1 | inconclusive: 35.5 µM [inhibitor, full curve] | – |
| N#Cc1cccc(NC(=S)N[C@H]2CO[C@H]3[C@@H]2OC[C@@H]3n2nnnc2Oc2ccccc2)c1 | inconclusive: 35.5 µM [inhibitor, partial curve, poor fit] | – |
| N#Cc1cccc(NC(=O)N2Cc3[nH]cnc3C[C@H]2c2nc(-c3cccc([N+](=O)[O-])c3)no2)c1 | inconclusive: 56.2 µM [inhibitor, partial curve, poor fit] | – |
| C[S+](=O)([O-])Nc1cccc(-c2nc(N3CCOCC3)cc3c2CN(CC2CC2)C3=O)c1 | inconclusive: 2.82 µM [inhibitor, full curve, poor fit] | – |
| O=C1NC(=NC2CCCCC2)C2(CCCN(Cc3ccsc3)C2)N1c1cc(F)cc(F)c1 (stereo not given) | inconclusive: 44.7 µM [inhibitor, partial curve, poor fit] | – |
| COC(=O)c1ccc2nc(CO[C@H]3CN(Cc4ccc(C(F)(F)F)cc4)C[C@H]3F)[nH]c2c1 | inconclusive: 50.1 µM [inhibitor, partial curve, poor fit] | – |
| CCOC(=O)C1(Cc2ccccc2C)CCCN(Cc2nccn2CC)C1 (stereo not given) | inconclusive: 56.2 µM [inhibitor, partial curve, poor fit] | – |
| CNC(=O)c1cc(C2CC2)nc2c1c(C1CCCN1[S+](=O)([O-])C(C)C)nn2C (stereo not given) | – | inactive: -27.6% |
| O=c1[nH]c(N2CCOCC2)nc2c1CCN(Cc1cc(Cl)ccc1F)CC2 | inconclusive: 35.5 µM [inhibitor, partial curve, poor fit] | – |
| Cc1cnc(C(=O)N2CCC(N3C(=O)C(OCC4CC4)C34CCOCC4)CC2)cn1 (stereo not given) | – | inactive: -10.7% |
| O=C1N2CCCC2CN1C1CCN(Cc2cccc(F)c2)CC1 (stereo not given) | inconclusive: 100 µM [inhibitor, single point] | – |
| CCCCn1c(=O)c(C(=O)N2CCN([S+](C)(=O)[O-])CC2)nc2cccnc21 | – | inactive: 2.62% |
| O=C(NCCN[S+](=O)([O-])c1ccccc1)c1ccc(-c2cccc(C(F)(F)F)c2)cc1 | inconclusive: 44.7 µM [inhibitor, partial curve, poor fit] | – |
| Cc1cc(CNC(=O)Cc2ccc(-n3cnnn3)cc2)c2[nH]c(C)c(C)c2c1 | active: 20 µM | – |

| Compound | Potency | activity change, negative = cytotoxicity |
| --- | --- | --- |
| COC(=O)[C@H](Cc1ccc(OC)cc1)NC(=O)[C@H]1CN(S(=O)(=O)c2ccccc2)CCN1C(C)=O | inconclusive: 44.7 µM [inhibitor, full curve, poor fit] | – |
| Cn1ncc2c(C(=O)Nc3ccc(F)cc3)cc(-c3ccc(C(F)(F)F)cc3)nc21 | – | inactive: -1.77% |
| COc1ccc(-c2cc(N3CCCN(C(=O)c4ccc(Br)cc4)CC3)n[nH]2)cc1 | inconclusive: 44.7 µM [inhibitor, partial curve, poor fit] | – |
| COC(=O)N1CCCC(c2nn(-c3ccc(F)cc3)c(=O)[nH]2)C1 (stereo not given) | inconclusive: 100 µM [inhibitor, partial curve, poor fit] | – |
| O=C(Cc1cccc(Cl)c1)N1CCCC(n2cc(-c3nc(-c4ccccc4)no3)nn2)C1 (stereo not given) | inconclusive: 44.7 µM [inhibitor, partial curve, poor fit] | – |
| O=C(Nc1ccccc1)NC1CCN(C(=O)c2ccc(-c3cncnc3)cc2)CC1 | – | inactive: -31.4% |
| O=C1Nc2ccccc2O[C@H]2C[C@@H]1N(Cc1ccnc3ccccc13)C2 | inconclusive: 79.4 µM [inhibitor, partial curve] | – |
| CC1=C[C@@H](CN(C)CCc2ccccn2)[C@H](C(C)C)C[C@H]1Cc1nnc(-c2ccccc2)o1 | inconclusive: 44.7 µM [inhibitor, partial curve, poor fit] | – |
| CCC(C)NC(=O)C(NC(=O)c1ccc(OC)cc1)C1CCN(C(=O)c2ccccc2C)CC1 (stereo not given) | – | inactive: -12.4% |
| COc1ccc(C(=O)N2CCC3(CC2)NC(=O)N(c2ccccc2)N3)cc1 | inconclusive: 35.5 µM [inhibitor, partial curve, poor fit] | – |
| COCCCNC(=O)N1CCCN(C(=O)C2CC2)C(c2ccccc2)CC(=O)NCC1 (stereo not given) | – | inactive: -17.4% |
| CCCN[C@H]1C[C@@H](Cc2cc(COc3ccccc3)on2)C1(C)C | inconclusive: 100 µM [inhibitor, partial curve, poor fit] | – |
| Cc1cc(C)c(CNC(=O)c2nc(-c3cccc(F)c3)cc3c2ccn3C)c(=O)[nH]1 | – | inactive: -28.6% [at 138 µM] |
| Cc1ccc(C2(O)CCN(C(=O)c3cccc(-c4ncc[nH]4)c3)CC2)nc1 | – | inactive: -16.5% |
| O=C(N[C@H]1CO[C@H]2[C@@H]1OC[C@@H]2n1cc(CC2CCCCC2)nn1)C1CC1 | active: 31.6 µM | – |
| Cc1ccc(N2CCN(C(=O)C3CCCN(c4cnc5nccnc5c4)C3)CC2)cc1 (stereo not given) | inconclusive: 10 µM [inhibitor, full curve, poor fit] | – |
| COc1ccc(CN2CC3(CCN(C(=O)c4ccc(F)c(Cl)c4)CC3)C2=O)cc1 | inconclusive: 50.1 µM [inhibitor, partial curve, poor fit] | – |
| CC1=C[C@@H](CNS(=O)(=O)c2ccccc2)[C@H](C(C)C)C[C@H]1CC(=O)O | inconclusive: 112 µM [inhibitor, partial curve, poor fit] | – |
| CC(NC(=O)c1ccc2nccn2c1)c1ccc(F)cc1 (stereo not given) | inconclusive: 89.1 µM [inhibitor, partial curve] | – |
| Cc1ccc(S(=O)(=O)Nc2ccc(C)n(CC(=O)NCc3cccc(F)c3)c2=O)cc1 | – | inactive: 0.908% |
